Laboratory results from the supplement of paper PMC10126150.
Values marked as one replicate rest on one cluster of the flow cell; about a third of the high ones do not repeat.

System: ATP
Assay: switch fluorescence ratio, 500 uM ATP over buffer (Cy3 cluster intensity, sum of 5 cycles each) (fold (ratio)); higher = stronger signal-on switching upon ATP binding; sequences stand for … in TCGTCGGCAGCGTCAGATGTGTATAAGAGACAGTTTTTTTTTTTTTTTTTTTTTTTTT…TC
Details: aptamer strand: ATP DNA aptamer (quencher-CACCTGGGGGAGTATTGCGGAGGAAGG + anchor), 100 nM annealed; ATP concentration: 500 uM; one replicate
Summary of the method: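 Clusters carrying Cy3-labelled switching strands on a modified Illumina MiSeq flow-cell were annealed to 100 nM quencher-labelled ATP aptamer and imaged in selection buffer. They were imaged again after 15 min with 500 uM ATP at 22 °C, over five buffer/ATP cycles with NaOH stripping and re-annealing in between. For each cluster, the fluorescence ratio is the summed Cy3 intensity of the target cycles divided by that of the buffer cycles, averaged per switch-domain sequence. Clusters outside 100-1000 RFU were left out.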
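Note: ATP exposure 15 min at 22 °C before imaging.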

| Sequence | switch fluorescence ratio |
| --- | --- |
| TACTGCGATT | 1.12 |
| AATGCTGGAA | 1.02 |
| CTTTCTGATT | 0.944 |
| ACGTGAAATC | 0.986 |
| AGGTTACTTT | 1.01 |
| CTAGAGGGTT | 0.993 |
| ATTACAGAG | 1.02 |
| CGCGGGAATC | 1.14 |
| TTCAGAACGA | 1.02 |
| GAATGTCAAG | 0.981 |
| GTCACCTGAG | 1.31 |
| CGTGCCCTAC | 1.13 |
| TTAGGCAGTG | 0.954 |
| TTTTGATTA | 0.999 |
| ATCCTAGCGA | 1.15 |
| AGGAGAAGG | 1.03 |
| ACGTGTGTAG | 1.02 |
| TTGTAGTTT | 1.01 |
| AATTCGAGTA | 0.975 |
| TCATCTTCGT | 1.02 |
| TTCCGTATGC | 1.32 |
| CTATTGTTGC | 1.09 |
| TTCAGGTAGC | 1.04 |
| GCGTCACGGA | 1.02 |
| CTCGCTAGTT | 0.977 |
| TATCTCAGCC | 0.995 |

| Sequence | switch fluorescence ratio |
| --- | --- |
| AACTCCGGTG | 1.01 |
| TTGGGCTCG | 1.08 |
| AACGGAAACC | 1.15 |
| GAGCTTTATA | 1.04 |
| AGCGTCTCTA | 1.03 |
| TTATGGCCCG | 0.967 |
| CACGGCCGGC | 1.01 |
| AACACGCCGT | 1.02 |
| TTCGCTCATG | 1.01 |
| CAGGCCTGCA | 0.97 |
| GAAACTTAAT | 1.03 |
| TCCTCACCG | 1.11 |
| GAATGGCCGG | 1.02 |
| GCGTCTGGTG | 0.993 |
| TAAGGTCTCT | 1.02 |
| ATTCATATCT | 1.05 |
| TTGGACGGTG | 0.987 |
| GATATGTCGA | 1.01 |
| ACTAATTTC | 1.03 |
| TATCTTAGCC | 1.05 |
| ATGATGTTTT | 0.993 |
| GGTGGGGTT | 0.972 |
| TATACGGTAG | 1 |
| CGACTGGTTT | 1.04 |
| GTGTAAAGTA | 0.977 |
| GGCCTGTTTG | 1 |

| Sequence | switch fluorescence ratio |
| --- | --- |
| ATTCCAGAA | 0.987 |
| TTTAGTATAC | 1.05 |
| TCGCATTATT | 1.58 |
| AGATAATGTA | 0.986 |
| AATATAACGT | 0.991 |
| AGCGGATTTC | 1.02 |
| AATGTACTGG | 1.07 |
| TCAATGGAGG | 1.05 |
| TGGTCAATCC | 1.01 |
| TCCTTGAGGA | 0.945 |
| AAGCTCTTAA | 0.999 |
| TGACCATCTC | 1.09 |
| TGAAAGATGA | 0.985 |
| CGATAGTCAT | 1.02 |
| GAGAGCTAGA | 1.01 |
| GCTAGATCAA | 0.977 |
| ACAGTCTACG | 1.08 |
| GGTGGCAATG | 0.984 |
| ATATCCATTG | 0.982 |
| CACGGGTTGG | 0.977 |
| CACCTGGTTT | 1.04 |
| AGTGTTTAC | 0.968 |
| ATAATAGGAC | 1.04 |
| ACGGTTACCC | 1.63 |
| GGTCGAGGAG | 0.999 |
| GATAATGGGA | 1.02 |

| Sequence | switch fluorescence ratio |
| --- | --- |
| ATCAAGTAGG | 1.03 |
| AGGATCCAC | 1.01 |
| TGCCGAAGTA | 1.01 |
| GAACGCGGTG | 1.02 |
| TCCCTGCGTC | 1.38 |
| ATCCGTCGTT | 1.01 |
| TCAGAAACAG | 1.02 |
| TCGTACGGGG | 1.03 |
| GAGGTGAACC | 0.934 |
| TAAGATCCGA | 1.04 |
| ATGCTTACGG | 1.05 |
| ATGCATGGCA | 0.991 |
| ATACGCGAC | 1.84 |
| TAGTGAGTGG | 0.958 |
| TATCGATTGC | 0.953 |
| AGTTGGACAC | 1.06 |
| AAATGATCGC | 1.01 |
| GTTGGACAGG | 1.02 |
| AAACTTCCGG | 1.57 |
| CTTTCACTCG | 1.02 |
| GAACACAGG | 1.09 |
| TGTGGAGATT | 1.15 |
| GCGATTAGCA | 0.947 |
| ATCGACAAT | 1.02 |
| CTGTATGGGG | 0.984 |
| ACCCGGTGAT | 1.67 |

| Sequence | switch fluorescence ratio |
| --- | --- |
| CAAAGAGTGC | 0.975 |
| CGGCAGGACT | 1.34 |
| ACCTATATTC | 1.09 |
| TGGATTGAAA | 0.975 |
| GGACACGTGA | 1 |
| AATTTTCTA | 1.01 |
| AGATGAATCT | 0.985 |
| TGGTCGTGCG | 0.97 |
| GCGCGAGGAT | 1.08 |
| CTATTGCGCC | 0.984 |
| ACATGGGGT | 0.97 |
| GAGGAGAGAT | 0.949 |
| CGGATGCCCT | 0.965 |
| CCGCTAATCA | 4.31 |
| TTCGCCATGC | 2.67 |
| GGAATAAGTT | 0.999 |
| CATCTCCCAT | 1.07 |
| TAGGCTAGAT | 1.01 |
| CCTAGTTCGC | 1.08 |
| AATGTCTGGT | 0.964 |
| CCAAGTTATG | 1.04 |
| TGGAATATTG | 0.964 |
| GACTGACTCT | 1.12 |
| AACTTGTTTG | 1 |
| ACGTGCTCTT | 0.984 |
| AATATGTAGA | 0.961 |

| Sequence | switch fluorescence ratio |
| --- | --- |
| CTATTACTGG | 1 |
| TCTGAGCCTT | 1.02 |
| TCGGTACTAA | 0.973 |
| GATGAAGAGA | 1.01 |
| TACTCATCTT | 1.02 |
| TTGGGTCGCG | 1.01 |
| TAATTTACCG | 1.02 |
| GGGGTGACCC | 0.992 |
| CGCCTAACTG | 1.02 |
| ATTAAGGTCT | 1 |
| TGGATCACTG | 0.983 |
| TGAGTTCGCC | 1.01 |
| CTATCCTGTT | 1.02 |
| AGCTGTGACG | 1.04 |
| CCATAGGCAC | 1.16 |
| TCTGGCCTCG | 0.984 |
| ACAGTTCC | 1.19 |
| GCGCCCAGGC | 1.18 |
| CGCGCCAATT | 1.12 |
| AATGCTAGGG | 0.988 |
| GCGGGGACGA | 1.03 |
| ACTCAATTAC | 2.21 |
| GCTACCCCCA | 1.67 |
| CCAAAGTCGG | 1.11 |
| CCGAGGATTC | 1.47 |
| CACGTAACCC | 1.43 |

| Sequence | switch fluorescence ratio |
| --- | --- |
| TGCTTAGCCG | 0.949 |
| TGAAGCTCCG | 0.993 |
| TGACGCTTTG | 1.02 |
| AAGGGCTACA | 0.997 |
| GATTTCAGC | 0.998 |
| GCCTGAGCAA | 1.24 |
| CTATTAGGAA | 0.972 |
| ACTCAGTCGT | 1.04 |
| CGCGTATCGA | 0.989 |
| CGACAAGTTA | 1.06 |
| TCGGAGCGC | 0.91 |
| GTAGTGAGTC | 1 |
| GTTGCCCAAT | 1.11 |
| TTGCTCGCAG | 1.09 |
| GCCAAGTTAA | 1 |
| GTACTAGGGT | 1 |
| GTGGAATTAC | 1.07 |
| GCTCTGGCAT | 1.08 |
| AAACGCCGA | 0.969 |
| GCAGGGGAAA | 0.952 |
| GAGGCAATGT | 5.07 |
| GACTTCACT | 1.21 |
| CTGGGAACTA | 0.966 |
| GGGTTACGGA | 1 |
| TTTCAGGGG | 1.14 |
| ATGGTGTTTG | 1.02 |

| Sequence | switch fluorescence ratio |
| --- | --- |
| GCACTCGTCA | 0.98 |
| CCAAAAGGCC | 1.03 |
| CGGGAATGTT | 1 |
| GGACTAGTCT | 1.02 |
| GATATTACTC | 1.08 |
| GGTCCTATCA | 1.01 |
| TATGGACGCG | 1.01 |
| TGTTTGGT | 0.992 |
| TCAGATTGTC | 0.996 |
| TACTGTCTCA | 0.988 |
| GCGGTCTTTG | 1.01 |
| TAACAGT | 1.01 |
| GACGGCTAAC | 1.16 |
| CGTTACAGC | 1 |
| CCCGCGCATG | 3.19 |
| TCGCGCACAA | 1.04 |
| GCATAGGCAG | 0.981 |
| GCCGTCATCG | 1.02 |
| GGACGACAGG | 1.07 |
